# Measurements taken from the supplement of paper PMC8728848.
# Some of the results follow.
# How the values were obtained:
# Experiment in all cases: glycan array binding signal (z-score within array); higher = stronger binding
# Conditions in all cases: glycan notation: IUPAC condensed, linker removed
# [1] = target: Neu5Ac(a2-6)Gal(b1-3)GlcNAc(b1-3)[Gal(b1-4)GlcNAc(b1-6)]Gal(b1-4)Glc
# How it was run: (§1)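 Negative Z-scores can be read as non-binding. The Z-score is calculated within each array and then averaged across arrays of one protein sequence at different concentrations or buffers and across linkers. Arrays, 3228 in all, were curated from the Consortium for Functional Glycomics database and kept only where the protein sequence was available.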
# Neu5Ac(a2-6)Gal(b1-4)Glc = target: Neu5Ac(a2-6)Gal(b1-4)Glc
# How it was run: as §1
# [2] = target: Neu5Ac(a2-6)Gal(b1-4)GlcNAc
# How it was run: as §1
# [3] = target: Neu5Ac(a2-6)Gal(b1-4)GlcNAc(b1-2)Man
# How it was run: as §1
# [4] = target: Neu5Ac(a2-6)Gal(b1-4)GlcNAc(b1-2)Man(a1-3)Man(b1-4)GlcNAc(b1-4)GlcNAc
# How it was run: as §1
# [5] = target: Neu5Ac(a2-6)Gal(b1-4)GlcNAc(b1-2)Man(a1-3)[Gal(b1-4)GlcNAc(b1-2)Man(a1-6)]Man(b1-4)GlcNAc(b1-4)GlcNAc
# How it was run: as §1
# [6] = target: Neu5Ac(a2-6)Gal(b1-4)GlcNAc(b1-2)Man(a1-3)[GlcNAc(b1-2)Man(a1-6)]Man(b1-4)GlcNAc(b1-4)GlcNAc
# How it was run: as §1
# [7] = target: Neu5Ac(a2-6)Gal(b1-4)GlcNAc(b1-2)Man(a1-3)[GlcNAc(b1-4)][Neu5Ac(a2-6)Gal(b1-4)GlcNAc(b1-2)Man(a1-6)]Man(b1-4)GlcNAc(b1-4)GlcNAc
# How it was run: as §1
# [8] = target: Neu5Ac(a2-6)Gal(b1-4)GlcNAc(b1-2)Man(a1-3)[Man(a1-6)]Man(b1-4)GlcNAc(b1-4)GlcNAc
# How it was run: as §1
# [9] = target: Neu5Ac(a2-6)Gal(b1-4)GlcNAc(b1-2)Man(a1-3)[Neu5Ac(a2-3)Gal(b1-4)GlcNAc(b1-2)Man(a1-6)]Man(b1-4)GlcNAc(b1-4)GlcNAc
# How it was run: as §1
# [10] = target: Neu5Ac(a2-6)Gal(b1-4)GlcNAc(b1-2)Man(a1-3)[Neu5Ac(a2-6)Gal(b1-4)GlcNAc(b1-2)Man(a1-6)]Man(b1-4)GlcNAc(b1-4)GlcNAc
# How it was run: as §1
# [11] = target: Neu5Ac(a2-6)Gal(b1-4)GlcNAc(b1-2)Man(a1-3)[Neu5Ac(a2-6)Gal(b1-4)GlcNAc(b1-2)Man(a1-6)]Man(b1-4)GlcNAc(b1-4)[Fuc(a1-6)]GlcNAc
# How it was run: as §1
# [12] = target: Neu5Ac(a2-6)Gal(b1-4)GlcNAc(b1-2)Man(a1-6)Man(b1-4)GlcNAc(b1-4)GlcNAc
# How it was run: as §1
# [13] = target: Neu5Ac(a2-6)Gal(b1-4)GlcNAc(b1-2)Man(a1-6)[Gal(b1-4)GlcNAc(b1-2)Man(a1-3)]Man(b1-4)GlcNAc(b1-4)GlcNAc
# How it was run: as §1
# [14] = target: Neu5Ac(a2-6)Gal(b1-4)GlcNAc(b1-2)Man(a1-6)[GlcNAc(b1-2)Man(a1-3)]Man(b1-4)GlcNAc(b1-4)GlcNAc
# How it was run: as §1
# [15] = target: Neu5Ac(a2-6)Gal(b1-4)GlcNAc(b1-2)Man(a1-6)[Man(a1-3)]Man(b1-4)GlcNAc(b1-4)GlcNAc
# How it was run: as §1
# [16] = target: Neu5Ac(a2-6)Gal(b1-4)GlcNAc(b1-2)[Neu5Ac(a2-6)Gal(b1-4)GlcNAc(b1-4)]Man(a1-3)[GlcNAc(b1-4)][Neu5Ac(a2-6)Gal(b1-4)GlcNAc(b1-2)[Neu5Ac(a2-6)Gal(b1-4)GlcNAc(b1-6)]Man(a1-6)]Man(b1-4)GlcNAc(b1-4)GlcNAc
# How it was run: as §1
# [17] = target: Neu5Ac(a2-6)Gal(b1-4)GlcNAc(b1-2)[Neu5Ac(a2-6)Gal(b1-4)GlcNAc(b1-4)]Man(a1-3)[GlcNAc(b1-4)][Neu5Ac(a2-6)Gal(b1-4)GlcNAc(b1-4)Man(a1-6)]Man(b1-4)GlcNAc(b1-4)GlcNAc
# How it was run: as §1
# [18] = target: Neu5Ac(a2-6)Gal(b1-4)GlcNAc(b1-2)[Neu5Ac(a2-6)Gal(b1-4)GlcNAc(b1-6)]Man(a1-6)[Neu5Ac(a2-6)Gal(b1-4)GlcNAc(b1-2)Man(a1-3)][GlcNAc(b1-4)]Man(b1-4)GlcNAc(b1-4)GlcNAc
# How it was run: as §1
# [19] = target: Neu5Ac(a2-6)Gal(b1-4)GlcNAc(b1-3)Gal(b1-3)GlcNAc
# How it was run: as §1
# [20] = target: Neu5Ac(a2-6)Gal(b1-4)GlcNAc(b1-3)Gal(b1-4)GlcNAc
# How it was run: as §1
# [21] = target: Neu5Ac(a2-6)Gal(b1-4)GlcNAc(b1-3)Gal(b1-4)GlcNAc(b1-2)Man(a1-3)[Neu5Ac(a2-6)Gal(b1-4)GlcNAc(b1-3)Gal(b1-4)GlcNAc(b1-2)Man(a1-6)]GalNAc
# How it was run: as §1
# [22] = target: Neu5Ac(a2-6)Gal(b1-4)GlcNAc(b1-3)Gal(b1-4)GlcNAc(b1-3)Gal(b1-4)GlcNAc
# How it was run: as §1
# [23] = target: Neu5Ac(a2-6)Gal(b1-4)GlcNAc(b1-3)Gal(b1-4)GlcNAc(b1-3)Gal(b1-4)GlcNAc(b1-2)Man(a1-3)[Neu5Ac(a2-6)Gal(b1-4)GlcNAc(b1-3)Gal(b1-4)GlcNAc(b1-3)Gal(b1-4)GlcNAc(b1-2)Man(a1-6)]GalNAc
# How it was run: as §1
# [24] = target: Neu5Ac(a2-6)Gal(b1-4)GlcNAc(b1-3)Gal(b1-4)GlcNAc(b1-3)GalNAc
# How it was run: as §1
# [25] = target: Neu5Ac(a2-6)Gal(b1-4)GlcNAc(b1-3)Gal(b1-4)GlcNAc(b1-3)[Neu5Ac(a2-6)Gal(b1-4)GlcNAc(b1-3)Gal(b1-4)GlcNAc(b1-6)]GalNAc
# How it was run: as §1
# [26] = target: Neu5Ac(a2-6)Gal(b1-4)GlcNAc(b1-3)Gal(b1-4)GlcNAc(b1-6)[Gal(b1-3)]GalNAc
# How it was run: as §1
# [27] = target: Neu5Ac(a2-6)Gal(b1-4)GlcNAc(b1-3)Gal(b1-4)[Fuc(a1-3)]GlcNAc(b1-3)Gal(b1-4)[Fuc(a1-3)]GlcNAc
# How it was run: as §1
# [28] = target: Neu5Ac(a2-6)Gal(b1-4)GlcNAc(b1-3)GalNAc
# How it was run: as §1
# [29] = target: Neu5Ac(a2-6)Gal(b1-4)GlcNAc(b1-3)[Neu5Ac(a2-6)Gal(b1-4)GlcNAc(b1-6)]GalNAc
# How it was run: as §1
# [30] = target: Neu5Ac(a2-6)Gal(b1-4)GlcNAc(b1-6)GalNAc
# How it was run: as §1
# [31] = target: Neu5Ac(a2-6)Gal(b1-4)GlcNAc(b1-6)[Gal(b1-3)GlcNAc(b1-3)]Gal(b1-4)Glc
# How it was run: as §1
# [32] = target: Neu5Ac(a2-6)Gal(b1-4)GlcNAc(b1-6)[Gal(b1-3)]GalNAc
# How it was run: as §1
# [33] = target: Neu5Ac(a2-6)Gal(b1-4)GlcNAc6S
# How it was run: as §1
# Neu5Ac(a2-6)GalNAc = target: Neu5Ac(a2-6)GalNAc
# How it was run: as §1
# [34] = target: Neu5Ac(a2-6)GalNAc(b1-4)GlcNAc
# How it was run: as §1
# [35] = target: Neu5Ac(a2-6)GalNAc(b1-4)GlcNAc6S
# How it was run: as §1
# [36] = target: Neu5Ac(a2-6)GlcNAc(b1-4)GlcNAc
# How it was run: as §1
binder,measurement,setting,value
PX9961X-pdi-531-24-531 (Parabacteroides distasonis) (protein) DLTEEIHSSVIAENYYNNAGEVMAAMMRPWGHFCGTMQVAQSPWSCNELSSDCAAWPQKGRHGYDNGDWIRLHRHQWIPTDGQVVDAWKKLFEGIGYANNFLTDTENIDFEALQVPMSKAQAQAEMRVYRAYCYWYVMDMFGTAPICEKIGEINPSSKSRAELFAWIEKELNESIPSLSESKTETYGRVSKWGAYALLARLYLNAEIYTGQARWDDCIAACDELAKGGFALDKKWNDTFRADNDKRSTEIIWSIVYDEVYAKGMGWYQRWLHYAHQTGWDLQSGPWNGLVTQPTFYDSFADNDLRKIEGFLIGKQYPRKVDENGNYYYDTTAEPLKGSEEYNGQDLVFVNYIKSMTEGEENSGARSIKYEIQPGTTGDMNNDWVMFRYSEVIYNKAEALMRKNGGKATQEVVDMINSVRQRSFKAEDWEKAKYTTATLTMDEFLAEKGREFAFEGIRRTDLVRFNKFVTTSWWDKTASNEPKRNIFPIPQRQLDANANLSPNEANSLF,glycan array binding signal (z-score),[1],-0.549
same,glycan array binding signal (z-score),Neu5Ac(a2-6)Gal(b1-4)Glc,0.033
same,glycan array binding signal (z-score),[2],-0.955
same,glycan array binding signal (z-score),[3],-0.14
same,glycan array binding signal (z-score),[4],-0.356
same,glycan array binding signal (z-score),[5],0.644
same,glycan array binding signal (z-score),[6],1.05
same,glycan array binding signal (z-score),[7],-0.738
same,glycan array binding signal (z-score),[8],-0.755
same,glycan array binding signal (z-score),[9],0.014
same,glycan array binding signal (z-score),[10],0.135
same,glycan array binding signal (z-score),[11],0.542
same,glycan array binding signal (z-score),[12],-0.137
same,glycan array binding signal (z-score),[13],-0.801
same,glycan array binding signal (z-score),[14],-0.316
same,glycan array binding signal (z-score),[15],-0.33
same,glycan array binding signal (z-score),[16],-0.359
same,glycan array binding signal (z-score),[17],-0.551
same,glycan array binding signal (z-score),[18],-0.658
same,glycan array binding signal (z-score),[19],-0.821
same,glycan array binding signal (z-score),[20],0.024
same,glycan array binding signal (z-score),[21],0.561
same,glycan array binding signal (z-score),[22],-0.299
same,glycan array binding signal (z-score),[23],1.33
same,glycan array binding signal (z-score),[24],-0.35
same,glycan array binding signal (z-score),[25],0.102
same,glycan array binding signal (z-score),[26],-0.281
same,glycan array binding signal (z-score),[27],-0.181
same,glycan array binding signal (z-score),[28],-0.381
same,glycan array binding signal (z-score),[29],2.09
same,glycan array binding signal (z-score),[30],-0.482
same,glycan array binding signal (z-score),[31],-0.144
same,glycan array binding signal (z-score),[32],-0.606
same,glycan array binding signal (z-score),[33],-0.205
same,glycan array binding signal (z-score),Neu5Ac(a2-6)GalNAc,-0.425
same,glycan array binding signal (z-score),[34],-0.003
same,glycan array binding signal (z-score),[35],0.378
same,glycan array binding signal (z-score),[36],-0.539
